This test has as its target T1, human CEACAM5 expressed on human cancer cell lines (MKN-45, NCI-H441, SK-CO-1, SNU-16, LS174T) (human, UniProt P06731 35-685).
T1 sequence: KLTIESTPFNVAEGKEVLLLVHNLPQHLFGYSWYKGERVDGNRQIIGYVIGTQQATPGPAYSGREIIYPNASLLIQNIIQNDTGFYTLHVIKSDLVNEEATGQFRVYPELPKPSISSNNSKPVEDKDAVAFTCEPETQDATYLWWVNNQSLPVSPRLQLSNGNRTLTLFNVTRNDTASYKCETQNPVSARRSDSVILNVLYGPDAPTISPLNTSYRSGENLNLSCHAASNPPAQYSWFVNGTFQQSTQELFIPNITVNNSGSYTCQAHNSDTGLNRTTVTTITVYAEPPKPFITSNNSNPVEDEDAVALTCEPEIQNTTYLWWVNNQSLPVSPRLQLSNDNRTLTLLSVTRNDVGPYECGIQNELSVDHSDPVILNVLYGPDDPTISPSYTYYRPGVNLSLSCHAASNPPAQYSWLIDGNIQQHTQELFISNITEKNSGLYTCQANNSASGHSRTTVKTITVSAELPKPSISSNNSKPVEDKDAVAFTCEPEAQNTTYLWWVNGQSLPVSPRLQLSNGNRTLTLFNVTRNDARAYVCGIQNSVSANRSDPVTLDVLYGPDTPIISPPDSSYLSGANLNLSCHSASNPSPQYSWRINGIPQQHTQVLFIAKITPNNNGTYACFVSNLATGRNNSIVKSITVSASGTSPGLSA
The test can be described thus: cell-based or functional assay.

B1: ADC6-M (conjugate of mAb6-M with DL1) (antibody, human IgG1, kappa)
heavy: EVQLQESGPGLVKPSQTLSLTCTVSDGSVSRGGYYLTWIRQHPGKGLEWIGYIYYSGSTYFNPSLRSRVTMSVDTSKNQFSLKLSSVTAADTAVYYCARGIAVAPFDYWGQGTLVTVSSASTKGPSVFPLAPSSKSTSGGTAALGCLVKDYFPEPVTVSWNSGALTSGVHTFPAVLQSSGLYSLSSVVTVPSSSLGTQTYICNVNHKPSNTKVDKRV[letters of human IgG1 Fc with changes left out]
light: EIVLTQSPATLSVSPGERATLSCRTSQSVRSNLAWYQQKPGQAPRLLIYAASTRATGIPARFSGSGSGTEFTLTISSLQSEDFAVYYCQQYTNWPFTFGPGTKVDIKRTVAAPSVFIFPPSDEQLKSGTASVVCLLNNFYPREAKVQWKVDNALQSGNSQESVTEQDSKDSTYSLSSTLTLSKADYEKHKVYACEVTHQGLSSPVTKSFNRGEC
modifications: DL1 by interchain cysteine conjugation; DL1 (maleimido b-glucuronide-exatecan) by interchain cysteine conjugation; DAR 8.14
As to B1, the “SPECIFICITY FACTOR (IC50 in CEACAM5-negative MDA-MB-231 divided by IC50 in MKN-45)” value is 158 fold, the “SPECIFICITY FACTOR (IC50 in CEACAM5-negative MDA-MB-231 divided by IC50 in SK-CO-1)” value is 710 fold and the “SPECIFICITY FACTOR (IC50 in CEACAM5-negative MDA-MB-231 divided by IC50 in SNU-16)” value stood at 195 fold.

B2: ADC7-M (conjugate of mAb7-M with DL1-M) (antibody, human IgG1, kappa)
heavy: EVQLQESGPGLVKPSQTLSLTCTVSDGSVSRGGYYLTWIRQHPGKGLEWIGYIYYSGSTYFNPSLRSRVTMSVDTSKNQFSLKLSSVTAADTAVYYCARGIAVAPFDYWGQGTLVTVSSASTKGPSVFPLAPSSKSTSGGTAALGCLVKDYFPEPVTVSWNSGALTSGVHTFPAVLQSSGLYSLSSVVTVPSSSLGTQTYICNVNHKPSNTKVDKRV[letters of human IgG1 Fc with changes left out]
light: EIVLTQSPATLSVSPGERATLSCRTSQSVRSNLAWYQQKPGQAPRLLIYAASTRATGIPARFSGSGSGTEFTLTISSLQSEDFAVYYCQQYTNWPFTFGPGTKVDIKRTVAAPSVFIFPPSDEQLKSGTASVVCLLNNFYPREAKVQWKVDNALQSGNSQESVTEQDSKDSTYSLSSTLTLSKADYEKHKVYACEVTHQGLSSPVTKSFNRGECGGTLQSPP
modifications: MTG tag GGTLQSPP at the C-terminus is a conjugation site for DL1-M; DL1-M (NH2-GGG-b-glucuronide-exatecan) coupled by microbial transglutaminase; DAR 3.87 for the whole antibody; residues carrying the drug not stated
With B2, the “SPECIFICITY FACTOR (IC50 in MDA-MB-231, set to 100 nM, divided by IC50 in MKN-45)” value was over 116 fold; the “SPECIFICITY FACTOR (IC50 in MDA-MB-231, set to 100 nM, divided by IC50 in SK-CO-1)” value is over 596 fold; the “SPECIFICITY FACTOR (IC50 in MDA-MB-231, set to 100 nM, divided by IC50 in SNU-16)” value is over 179 fold.

For the origin of these results see US20250179210A1 (Merck KGaA, published 2025).
